# Among all 39,000 compounds or so, about 220 (0.56%) showed activity. This is one part of the list.
# Test system: Escherichia coli K-12 BW25113
# Assay: relative growth (OD600 normalised to plate interquartile mean) (fraction); higher = less growth inhibition, active = 0.2 or less
# Settings: 50 µM; LB; incubation time: overnight (16-24 h)
# 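Also: static incubation at 37 °C against the wild-type strain, values averaged over two biological replicates.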
row,SMILES,relative growth
1,COc1ccc2c3c([nH]c2c1)[C@@H](CO)N(C[C@]13CCN(CC1)Cc1ccc(cc1)F)C(=O)Nc1ccc(cc1)F,inactive: 1.01
2,CCO[C@@H]1OC(C(=O)N2CCN(Cc3ccc4c(c3)OCO4)CC2)=C[C@H](c2ccc(Br)cc2)[C@H]1CCCOC(=O)NCCCCCC(=O)NO,inactive: 0.96
3,C[C@@H]1CN([C@H](C)CO)C(=O)Cc2cc(NC(=O)Nc3ccc(C(F)(F)F)cc3)ccc2O[C@@H]1CN(C)Cc1ccc(C(=O)O)cc1,inactive: 0.971
4,Cc1ccc(S(=O)(=O)N(C)C[C@@H]2Oc3c(NC(=O)Nc4ccc(C(F)(F)F)cc4)cccc3C(=O)N([C@@H](C)CO)C[C@@H]2C)cc1,inactive: 0.825
5,C[C@H]1CCCCO[C@@H](CN(C)Cc2ccc(C(F)(F)F)cc2)[C@@H](C)CN([C@@H](C)CO)C(=O)c2cc(NC(=O)CCC(F)(F)F)ccc2O1,inactive: 0.998
6,O=S1(=O)C[C@@H]2NC(=S)N[C@@H]2C1,inactive: 0.971
7,CCCNC(=O)c1cc2c(c(-c3cccc(-c4ccc(F)cc4)c3)n1)[C@@H](CCO)N([S@](=O)C(C)(C)C)C2,inactive: 0.996
8,COc1ccc(S(=O)(=O)Nc2ccc3c(c2)C(=O)N([C@H](C)CO)C[C@H](C)[C@@H](CN(C)C(=O)c2ccccc2)OCCCC[C@H](C)O3)cc1,inactive: 1
9,Cc1ccc(S(=O)(=O)N[C@@H]2CC[C@@H](CC(=O)N3CCC(Cc4ccccc4)CC3)O[C@@H]2CO)cc1,inactive: 0.998
10,Cc1noc(C)c1S(=O)(=O)N(C)C[C@H]1Oc2ccc(NC(=O)Cn3cnnn3)cc2C(=O)N([C@@H](C)CO)C[C@H]1C,inactive: 1.01
11,Cc1noc(C)c1-c1ccc(N)cc1,inactive: 0.918
12,CC12CCC(CC1=O)C2(C)C (stereo not given),inactive: 1.01
13,Cc1ccc(S(=O)(=O)N(C)C[C@H]2Oc3c(NC(=O)c4cc(C)nn4C)cccc3C(=O)N([C@@H](C)CO)C[C@H]2C)cc1,inactive: 0.989
14,C[C@@]12CC[C@@H]3c4ccc(O)cc4C[C@H](CCCCCCCCC[S@@](=O)CCCC(F)(F)C(F)(F)F)[C@@H]3[C@@H]1CC[C@@H]2O,inactive: 1.05
15,CCOC(=O)C1=CC(OC(CC)CC)C(NC(C)=O)C(N)C1.O=P(O)(O)O (stereo not given),inactive: 0.95
16,C[C@H]1CCCCO[C@H](CN(C)S(=O)(=O)c2cn(C)cn2)[C@@H](C)CN([C@@H](C)CO)C(=O)c2cc(NS(=O)(=O)c3ccc(F)cc3)ccc2O1,inactive: 0.988
17,C[C@@H]1CN([C@H](C)CO)C(=O)Cc2cc(NC(=O)Nc3cccc4ccccc34)ccc2O[C@@H]1CN(C)C(=O)NC1CCCCC1,inactive: 1.02
18,CC(O)C(=O)[O-].[Na+] (stereo not given),inactive: 0.864
19,Clc1ccc(CON=C(Cn2ccnc2)c2ccc(Cl)cc2Cl)c(Cl)c1.O=[N+]([O-])O,inactive: 0.999
20,COCCN1CCCn2c(nc(CNS(C)(=O)=O)cc2=O)C1,inactive: 1.01

row,SMILES,relative growth
1,COc1ccc(S(=O)(=O)N(C)C[C@@H]2OCCCC[C@H](C)Oc3ccc(NC(=O)Nc4ccccc4)cc3C(=O)N([C@H](C)CO)C[C@@H]2C)cc1,inactive: 1.02
2,C[C@H](CO)N1C[C@H](C)[C@@H](CN(C)C(=O)c2cccnc2)Oc2cc(-c3cccc(C#N)c3)ccc2S1(=O)=O,inactive: 1.01
3,Cc1noc(C)c1NC(=O)Nc1ccc2c(c1)CC(=O)N([C@@H](C)CO)C[C@H](C)[C@H](CN(C)Cc1ccc(C(=O)Nc3ccccc3N)cc1)O2,inactive: 1.05
4,O=C(C[C@H]1CC[C@H]2[C@@H](COC[C@@H](O)CN2S(=O)(=O)c2ccccc2)O1)N1CCc2ccccc2C1,inactive: 1.02
5,C[C@H]1[C@H]([Si](C)(C)F)[C@@H](CCn2cc([C@H](O)c3ccccc3)nn2)O[C@]12C(=O)N(c1ccccc1)c1ccccc12,inactive: 0.989
6,C[C@@H]1CN([C@H](C)CO)C(=O)c2cc(NC(=O)Nc3ccc(C(F)(F)F)cc3)ccc2O[C@@H]1CN(C)S(=O)(=O)c1ccc(Cl)cc1,inactive: 0.998
7,C[C@@H]1CN([C@@H](C)CO)C(=O)Cc2cc(NS(=O)(=O)c3cn(C)cn3)ccc2O[C@H]1CN(C)S(=O)(=O)c1cn(C)cn1,inactive: 0.97
8,C[C@@H]1CCCCO[C@H](CN(C)Cc2ccncc2)[C@H](C)CN([C@@H](C)CO)C(=O)c2cc(NC(=O)Cc3ccccc3)ccc2O1,inactive: 0.99
9,C[C@@H]1O[C@@H](O[C@@H]2[C@@H](O)[C@H](OCCc3ccc(O)c(O)c3)O[C@H](COC(=O)/C=C/c3ccc(O)c(O)c3)[C@H]2O)[C@H](O)[C@H](O)[C@H]1O,inactive: 1.01
10,COc1ccc(CN(C)C[C@@H]2OCCCC[C@H](C)Oc3ccc(NC(=O)NC4CCCCC4)cc3C(=O)N([C@H](C)CO)C[C@@H]2C)cc1,inactive: 1.02
11,O=C(Nc1ccc(F)cc1)N[C@@H]1C[C@@H]2O[C@H](CO)CC[C@@H]2O[C@@H]1CCc1ccc(-c2ccccc2)cc1,inactive: 1.02
12,COc1ccc(NC(=O)Nc2ccc3c(c2)C(=O)N([C@@H](C)CO)C[C@@H](C)[C@H](CN(C)C(=O)c2ccccc2)OCCCC[C@@H](C)O3)cc1,inactive: 0.88
13,C[C@@H]1CCCCO[C@@H](CN(C)Cc2ccccc2)[C@H](C)CN([C@@H](C)CO)C(=O)c2cc(NC(=O)Nc3cccc4ccccc34)ccc2O1,inactive: 0.998
14,C[C@@H]1CN([C@H](C)CO)C(=O)c2cccc(NC(=O)Nc3ccccc3)c2O[C@@H]1CN(C)CC1CCCCC1,inactive: 0.938
15,CC(C)NC(=O)N(C)C[C@H]1Oc2ccc(NC(=O)Cc3ccccc3)cc2C(=O)N([C@H](C)CO)C[C@@H]1C,inactive: 1.03
16,COc1ccc(NC(=O)N2C[C@H](O)COC[C@@H]3O[C@H](CC(=O)NC4Cc5ccccc5C4)CC[C@H]32)cc1,inactive: 0.979
17,O/N=C1\CCCCc2c1[nH]c1ccc(C3CCCCC3)cc21,inactive: 0.977
18,COc1ccccc1S(=O)(=O)N[C@H]1C=C[C@@H](CC(=O)N2CCN(C)CC2)O[C@H]1CO,inactive: 1.01
19,C[C@H](O)C#Cc1ccc2c(c1)O[C@H](CN(C)C(=O)Cc1ccccn1)[C@@H](C)CN([C@H](C)CO)S2(=O)=O,inactive: 1.01
20,C[C@@H]1CN([C@@H](C)CO)C(=O)c2cc(NC(=O)Nc3ccc(C(F)(F)F)cc3)ccc2O[C@@H]1CN(C)Cc1ccc2c(c1)OCO2,inactive: 0.973

row,SMILES,relative growth
1,CC(C)NC(=O)N(C)C[C@@H]1Oc2ccc(NC(=O)C3CCCCC3)cc2CC(=O)N([C@@H](C)CO)C[C@H]1C,inactive: 1
2,COc1ccc(CNC(=O)C[C@@H]2C[C@@H]3c4cc(NS(=O)(=O)c5ccc(F)cc5)ccc4O[C@@H]3[C@H](CO)O2)cc1,inactive: 1.03
3,Cc1noc(C)c1NC(=O)Nc1ccc2c(c1)C(=O)N([C@@H](C)CO)C[C@H](C)[C@@H](CN(C)Cc1ccccc1)OCCCC[C@H](C)O2,inactive: 1.01
4,COc1ccc2c3c([nH]c2c1)[C@H](CO)N(C[C@]13CN(C1)S(=O)(=O)C)C(=O)C1CC1,inactive: 1.01
5,COc1ccccc1S(=O)(=O)N(C)C[C@@H]1Oc2cc(C#CCC(C)C)ccc2S(=O)(=O)N([C@H](C)CO)C[C@H]1C,inactive: 1.01
6,O=C(CCCCCCC(=O)Nc1ccccc1O)N/N=C/c1ccc(N(c2ccccc2)c2ccccc2)cc1,inactive: 1.01
7,C[C@@H]1CN([C@@H](C)CO)C(=O)c2cccc(NS(=O)(=O)c3cn(C)cn3)c2O[C@@H]1CN(C)Cc1ccc(C(=O)O)cc1,inactive: 0.981
8,C[C@@H]1CN([C@@H](C)CO)S(=O)(=O)c2ccc(C3=CCCCC3)cc2O[C@@H]1CN(C)S(=O)(=O)c1cn(C)cn1,inactive: 0.992
9,Cc1ccc(S(=O)(=O)N(C)C[C@H]2Oc3cc(Br)ccc3S(=O)(=O)N([C@@H](C)CO)C[C@H]2C)cc1,inactive: 1.01
10,COc1ccc(S(=O)(=O)N(C)C[C@@H]2Oc3ccc(NC(=O)Cn4cnnn4)cc3CC(=O)N([C@@H](C)CO)C[C@H]2C)cc1,inactive: 1
11,CC(C)Cc1nc2ccccc2[nH]1,inactive: 1.04
12,C[C@H](CO)N1C[C@H](C)[C@@H](CN(C)Cc2ccc(Cl)c(Cl)c2)Oc2ccc(NC(=O)Nc3ccc(F)cc3)cc2CC1=O,inactive: 1.02
13,COc1ccc(NC(=O)Nc2ccc3c(c2)C(=O)N([C@H](C)CO)C[C@@H](C)[C@@H](CN(C)C(=O)Nc2cccc4ccccc24)O3)cc1,inactive: 0.996
14,C=C1C[C@]23CC[C@@H]4[C@@](C)(CCC[C@@]4(C)C(=O)O)[C@H]2CC[C@H]1C3,inactive: 1.01
15,CN(C)CCc1cc(Br)c(OCCCNC(=O)/C=C/c2cc(Br)c(OCCN3CCCC3)c(Br)c2)c(Br)c1,inactive: 0.993
16,C[C@H]1CCCCO[C@@H](CN(C)C(=O)Cc2ccccc2)[C@@H](C)CN([C@@H](C)CO)C(=O)c2cc(NC(=O)c3ccccc3)ccc2O1,inactive: 0.978
17,COc1cccc(C#Cc2ccc3c(c2)O[C@H](CN(C)C(=O)CN2CCOCC2)[C@H](C)CN([C@@H](C)CO)S3(=O)=O)c1,inactive: 1
18,CO[C@H]1CN(C)C(=O)c2ccc(NS(C)(=O)=O)cc2OC[C@H](C)N(C(=O)C2CCOCC2)C[C@H]1C,inactive: 0.998
19,C[C@H](CO)N1C[C@H](C)[C@H](CN(C)Cc2ccc(C(=O)O)cc2)Oc2ccc(NS(=O)(=O)c3cn(C)cn3)cc2C1=O,inactive: 1.02
20,C[C@@H]1CCCCO[C@H](CN(C)S(=O)(=O)c2ccccc2)[C@H](C)CN([C@@H](C)CO)C(=O)c2cc(NC(=O)CCC(F)(F)F)ccc2O1,inactive: 0.995
